# Assay results published in the supplement of paper PMC11417369.
# Some of the results follow.
# System: PfHDP1 homeodomain (GST-tagged)
# Experiment: gcPBM binding intensity (ln(normalized median fluorescence intensity)); higher = stronger DNA binding
# Method in brief: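 Using an Agilent 4 × 180k array, primer-extended double-stranded 36-bp intergenic genomic probes and negative controls were exposed for 1 h to GST-fused P. falciparum DNA-binding domains expressed in E. coli. Binding was carried out in 1× PBS with 1% milk, 0.2 mg/ml BSA, 0.5% salmon testes DNA and 0.03% Triton X-100, and protein was detected with Alexa488 anti-GST antibody and a 488 nm scan. Binding intensity is the highest Masliner-normalised natural-log median intensity across replicate spots of either probe orientation.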
row,Sequence,gcPBM binding intensity (ln)
1,ACCAAAAAAAAAAAAAAAAAAATATACATATATATA [GTGCAC_negctrl_site582],6.66
2,ATTTTATTTTCTCACACACACATATATATATATATA [CACACA_site5781],9.25
3,ACATATGTTAAAAAGGCATGCATTCTTTTTATTTTA [TGCATGCA_site1043],6.27
4,TTTTTTTTGGTATAATGTACATTTTCACTTATGTAT [XGTACX_site3259],6.97
5,TGGTATTGAATTTTTTGTACACATAAAATATATATA [XGTACX_site7614],6.45
6,TATTTTAATTTTTTTTTGTTTTTTCTAATACATGTA [CACACA_negctrl_site1399],6.05
7,GTGCCATTTAAAAAATGTACAAGAAAATGTTCATCA [XGTACX_site2865],6.13
8,GAAGAAAAAAAATATACACACATACGATCATACATA [CACACA_site5227],6.75
9,TCCTTTATTTTTAAAGTGCATATACATGTACATTAT [GTGCAC_site9445],7.62
10,GCAACACAAAAAATTACACACAAAAAAAATATATTA [CACACA_site916],6.49
11,CAGCTCTTAAGAATTACACACATATACACATATATA [CACACA_site7524],6.7
12,ATACATAAATACAAACGTACATACATACATACATAC [XGTACX_site7824],7.97
13,TATACCTATAAATACACACACATATAAATAAATATA [CACACA_site6153],6.85
14,TTATACAAATTCATGGGTACAAACAAACATATATCA [XGTACX_site6237],6.83
15,AAAATATATACTCCATCACACACCAAAAAGAAAAAA [CACACA_site2542],6.53
16,AAAAAAAAAAAAAAATGTACATATGGTATGCATATA [XGTACX_site3225],6.61
17,GCTTATAAAGGCAGAAGTACTGTATTCCTATATATA [XGTACX_site8865],6.13
18,AATAATAAAAAATATACACACATATATATATATATA [CACACA_site25],9.26
19,TTGGCATACGGACACACACACACACCCAGACATATA [CACACA_site4492],6.57
20,TTTTAATGTACCAGTGTGCACCTTGCGTACATATTA [GTGCAC_site9957],9.36
21,AATAATATATATATAATACACACTATTATAATCACA [CACACA_site1310],6.76
22,ATTCAAAAGATGTATACACACATGTGTATAATATAA [CACACA_site7197],7.94
23,TAATTTCCTTAAGAATGTACTTACATTTTATTATTT [XGTACX_site5998],6.02

row,Sequence,gcPBM binding intensity (ln)
1,TAATATGAAATGTGTACACACGCACCCACAAAAAAA [CACACA_site8949],7.62
2,GTTTATGTATTATTATGTACGTATCATAATATATAT [XGTACX_site2385],6.87
3,ATGGACAAGTTAAACGCACACAAATATATACAGACA [CACACA_site1652],7.33
4,ACAAAATAATTGTTTACACACCCATTTGTAATTTTA [CACACA_site3615],6.42
5,TCTGTAAACATATTCACACACATAAATTCGCATATA [CACACA_site1866],6.58
6,TGTATGAAAATAAATGCATGCCAAATATATATATAT [TGCATGCA_site132],8.72
7,AAAATGAAATATGTTATATATATATATATATATATA [CACACA_negctrl_site1752],9.4
8,TATCATTGTTCATGCTTGCACTTTTGTTACTGTTCC [GTGCAC_site9425],6.75
9,GAAAATTTATATTGCACACATAGGGAATAAAAAAAA [CACACA_site2146],10.3
10,AAAAAGAGGAAAAAGATAAAGAAATTAAAGGAGAGA [CACACA_negctrl_site423],6.5
11,TTTAATCATTTTATTTGTACTCATAAAAAATATAAT [XGTACX_site5537],6.37
12,AAAAAATATAAAAAAAGTACACAAAAACTACAAAAA [XGTACX_site2677],6.65
13,GGTAGTTATTATCTCCGTACTTATAAAGAAAAAAGG [XGTACX_site4674],6.57
14,GAATAAAAATTTTAATGTACATATTTTTTATTTATA [XGTACX_site8935],6.14
15,ATATTTTATATGTTCACACATACATAAACATATTTT [CACACA_site4948],6.53
16,TACAAATATATAAAATGTACATATATATACATATTA [XGTACX_site3029],6.13
17,TTTATTTTCATATGAACACACATATAAATATTATAA [CACACA_site7172],6.85
18,ATAACTTTATTTTCCTGTACACACATTTGACATATT [XGTACX_site7192],7.3
19,ATATATAATATAAGATGTACAATAAAATCTATATAT [XGTACX_site546],6.35
20,CATAAAATTGTGAAGTGTACATATTTTTAAATATAA [XGTACX_site8986],6.4
21,AGAAATATCTAATTGTGTACTCAAGAAAAAGTTACG [XGTACX_site372],6.61
22,CTTACAGACATATATACACACATGTATATTTTATAT [CACACA_site549],6.69
